# This list was built around the results that the source calls inconclusive (neither active nor inactive); the mix of calls is not that of the screen. Potencies of inconclusive entries are doubtful fits and often do not repeat. Activity calls are given as the source filed them. Calls come from the whole dose curve; as a rule, active = well fitted activation curve with a large enough effect; inconclusive = small, poorly fitted or top-dose-only effect; inactive = no such curve, though single readings can be large or run the other way.
# Biological target: Relaxin receptor 1 (Homo sapiens) (UniProt Q9HBX9)
# Chain of UniProt Q9HBX9 (Q9HBX9 whole entry, looked up): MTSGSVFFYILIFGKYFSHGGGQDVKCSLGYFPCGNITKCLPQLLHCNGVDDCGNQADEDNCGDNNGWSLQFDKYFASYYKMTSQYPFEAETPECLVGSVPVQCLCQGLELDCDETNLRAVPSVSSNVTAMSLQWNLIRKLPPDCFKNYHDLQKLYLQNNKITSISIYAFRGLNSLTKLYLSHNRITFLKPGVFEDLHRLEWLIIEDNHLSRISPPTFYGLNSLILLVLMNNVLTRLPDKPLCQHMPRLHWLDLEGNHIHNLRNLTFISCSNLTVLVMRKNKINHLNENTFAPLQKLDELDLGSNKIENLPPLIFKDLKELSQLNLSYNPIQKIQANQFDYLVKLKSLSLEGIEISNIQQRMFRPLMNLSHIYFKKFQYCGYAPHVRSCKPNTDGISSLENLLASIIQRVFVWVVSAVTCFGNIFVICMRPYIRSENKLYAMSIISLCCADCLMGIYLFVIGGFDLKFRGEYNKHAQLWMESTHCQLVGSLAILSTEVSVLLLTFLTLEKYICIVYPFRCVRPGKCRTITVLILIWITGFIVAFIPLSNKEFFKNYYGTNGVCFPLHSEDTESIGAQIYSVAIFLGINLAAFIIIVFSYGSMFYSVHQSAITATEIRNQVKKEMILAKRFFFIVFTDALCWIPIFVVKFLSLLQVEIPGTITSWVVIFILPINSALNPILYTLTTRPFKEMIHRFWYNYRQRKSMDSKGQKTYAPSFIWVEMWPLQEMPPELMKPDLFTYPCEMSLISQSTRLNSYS
# Experiment: qHTS Assay for Agonists of the Relaxin Receptor RXFP1: THP1 Hit Validation; note: nearly all actives have a fitted effect of over 60% in size
# Settings: THP1-RXFP1 cells, cAMP TR-FRET, 30 min; series mostly up to 115 µM
# Method in brief: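 Stable RXFP1 THP1 line; 30 min compound exposure at 37C in presence of Ro 20174; cAMP detected by HTRF after lysis.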
# Potency is the fitted concentration of half-maximal effect; tags give direction and shape of the fitted curve.
row,Compound,Potency
1,CN(Cc1ccco1)S(=O)(=O)c1cc(F)ccc1CN1C(=O)c2cccnc2C1=O,"inconclusive: 19.5 µM [activator, partial curve]"
2,COc1ccc(CN2C(=O)c3cccnc3C2=O)cc1S(=O)(=O)NC1CCCCC1,active: 19.5 µM
3,Cn1c2ccccc2c2nnc(SCC(=O)Nc3cccc(C(=O)O)c3)nc21,"inconclusive: 13.8 µM [activator, partial curve]"
4,CCOC(=O)c1sc(=NC(=O)c2ccc(S(=O)(=O)N(C)c3ccccc3)cc2)n(C)c1C,active: 34.6 µM
5,Cn1c(=O)c2c(ncn2CCC(=O)N/N=C/c2cccnc2)n(C)c1=O,"inconclusive: 38.9 µM [activator, partial curve]"
6,O=C(O)CCC(=O)N1CCN(c2nc(-c3ccccc3Cl)c3cc(Br)ccc3n2)CC1,"inconclusive: 21.8 µM [activator, partial curve]"
7,CCOC(=O)c1cc2c(=O)n3ccccc3nc2n(Cc2ccco2)c1=NC(=O)c1ccccc1OCC,"inconclusive: 11 µM [activator, full curve]"
8,N#Cc1c2n(c3c(N)ncnc13)CCCCC2,"inconclusive: 43.6 µM [activator, partial curve]"
9,CC1(C)Cc2c(sc3ncnc(NN)c23)CO1,"inconclusive: 21.8 µM [activator, partial curve]"
10,COc1cccc(NC(=O)CSc2ccc3nnc(-c4cccnc4)n3n2)c1,"inconclusive: 43.6 µM [activator, partial curve]"
11,CCn1c(=O)c2sccc2n2c(CCCC(=O)NCc3cccnc3)nnc12,"inconclusive: 34.6 µM [activator, partial curve]"

# From PubChem BioAssay AID492949 (National Center for Advancing Translational Sciences (NCATS), 2010)
